# Assay results taken from PubChem BioAssay AID686979 (National Center for Advancing Translational Sciences (NCATS), 2013).
# The whole screen tested about 420,000 compounds, of which about 50,000 (12%) were called active. This list was built around the results that the source calls inconclusive (neither active nor inactive); the mix of calls is not that of the screen. The call rests on the fitted dose curve; in most records, active means well fitted inhibition curve with a large enough effect; inconclusive means small, poorly fitted or top-dose-only effect; inactive means flat fitted curve, though single readings scatter. Potencies of inconclusive entries are left out as doubtful fits.
# Assay: qHTS for Inhibitors of human tyrosyl-DNA phosphodiesterase 1 (TDP1): qHTS in cells in presence of CPT; further: nearly all actives have a fitted effect of over 55% in size
# Details: chicken DT40 Tdp1-/-;hTDP1 cells + 20 nM CPT, ATP luminescence, 48 h; activity change, negative = growth inhibition: at 46.2 µM (top of the series) unless noted
# Summary of the method: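 Chicken DT40 Tdp1-/- cells complemented with human TDP1, 400 cells/well, exposed to compounds plus 20 nM camptothecin for at least 48 h at 37 C; viability read as ATP content by CellTiter-Glo luminescence.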
# On the % scale 0 is the no-effect control and ±100 the full control effect; potency means the concentration at half of the fitted maximal effect; tags describe the fitted curve by direction and shape.
SMILES,"activity change, negative = growth inhibition",Potency
COc1ccc(Cn2nnc3c(=O)[nH]c(C4CCN(C(=O)c5ccccc5Cl)CC4)nc32)cc1,inactive: -23.2%,–
CC(Cc1cccs1)NC(=O)Nc1ccc([N+](=O)[O-])cc1 (stereo unspecified),–,"inconclusive [inhibitor, single point]"
O=C(/C=C/c1ccccc1)NCC(=O)N/N=C/c1cccs1,inactive: -1.46%,–
O=C(CN1CCN(c2ccccn2)CC1)NC(=O)NC1CCCCC1,inactive: -21.3%,–
Cc1ccc(NC(=O)CN(C)C(=O)Cc2c(Cl)cccc2Cl)cc1,–,"inconclusive [inhibitor, single point]"
C[C@@H](NC(=O)c1ncn(C)c1C(=O)N[C@H](C)c1ccccc1)c1ccccc1,–,"inconclusive [inhibitor, single point]"
Cc1ccc(Oc2c(C=O)c3ccccc3n2C)cc1,–,active: 3.26 µM
C/C(=N\NC(N)=S)C1C2C3CC4C5CC(C42)C1C53 (stereo unspecified),–,"inconclusive [inhibitor, single point]"
C(=C\c1ccccc1)/C=N/Nc1nc(N2CCOCC2)nc(N2CCOCC2)n1,inactive: -11%,–
CC(=O)N1C[C@H]2CON(C)[C@H]2C[C@H]1c1cccc(-c2ccccc2C)c1,inactive: -17.4%,–
CCOC(=O)c1c(C)sc2c1N(C(=O)CN(CC)CC)c1ccccc1S2,–,"inconclusive [inhibitor, single point]"
O=C1CC(N(CCc2ccccc2)C(=S)Nc2ccccc2)C(=O)N1c1ccc(F)cc1 (stereo unspecified),–,"inconclusive [inhibitor, single point]"
CCN(CC(=O)Nc1ccc(NC(C)=O)cc1)C(=O)c1ccc(=O)[nH]c1,inactive: -4.64%,–
CCN1CCN(c2ccc(S(=O)(=O)N3CCCCC3)cc2NC(=O)Cc2ccc(OC)cc2)CC1,inactive: -29.9%,–
COc1ccc(C/C(C)=N/NS(=O)(=O)c2ccc(Br)cc2)cc1,inactive: -16%,–
N#Cc1cccc(NC(=O)c2cc(C3CCCCN3S(=O)(=O)c3cccc4cccnc34)on2)c1 (stereo unspecified),–,"inconclusive [inhibitor, single point]"
C=CCn1c(-c2cc(-c3ccc(C)cc3)nc3ccccc23)n[nH]c1=S,–,"inconclusive [inhibitor, single point]"
COc1ccc(Cl)cc1-n1c(=S)sc2c(=O)[nH]c(SCC(=O)C(C)(C)C)nc21,–,"inconclusive [inhibitor, single point]"
COC(=O)c1c(C)[nH]c(C(=O)/C=C/c2cccc(Cl)c2)c1C,–,"inconclusive [inhibitor, single point]"
COc1ccc(B(O)O)c(CN2CCN(C(=O)OC(C)(C)C)CC2)c1,inactive: 4.39%,–
CC(Oc1ccccc1)C(=O)NCC1Cc2cc(F)cc(-c3ccccn3)c2O1 (stereo unspecified),inactive: 9.75% [at 9.04 µM],–
COc1cccc(N2CCN(Cc3cc(=O)oc4cc(C)ccc34)CC2)c1,–,"inconclusive [inhibitor, single point]"
COc1ccc(C2c3c(ccc4ccccc34)Oc3ncn4nc(Cc5ccccc5)nc4c32)cc1OC (stereo unspecified),inactive: -10.7%,–

SMILES,"activity change, negative = growth inhibition",Potency
COc1ccccc1N(CC(=O)N1CCN(Cc2ccccc2)CC1)S(=O)(=O)c1ccccc1,–,active: 23.1 µM
CCOC(=O)C1(C)CCCN(C(=O)c2cccc3ccccc23)C1 (stereo unspecified),inactive: -20.3%,–
O=C(/C=C/c1ccc2c(c1)OCO2)NCCS(=O)(=O)N1CCN(c2ccc(F)cc2)CC1,–,"inconclusive [inhibitor, single point]"
Cc1ccc2c(c1)C(c1ccc(F)cc1)N(C(=O)c1cccc(C(F)(F)F)c1)CC(=O)N2 (stereo unspecified),–,"inconclusive [inhibitor, single point]"
COc1cccc(NC(=O)CN2C(=O)C(c3ccc(C)cc3)=NC23CCCCCC3)c1,–,"inconclusive [inhibitor, single point]"
O=C1CC(c2ccco2)c2ccc3ccccc3c2N1 (stereo unspecified),–,"inconclusive [inhibitor, single point]"
O=c1cc(-c2ccccc2)nc(SCc2ccccc2)[nH]1,inactive: -5.5%,–
CCN(CC)c1ccc(/C=C/c2cccc[n+]2C)c(OC)c1,–,active: 1.16 µM
N#Cc1cccc(NC(=O)CCNS(=O)(=O)c2ccc3c(c2)CCN3C(=O)C2CC2)c1,–,"inconclusive [inhibitor, partial curve, poor fit]"
CCN(CC)S(=O)(=O)c1ccc(N)cc1,inactive: 5.8%,–
COC1=C(C)C(=O)C2=C(C1=O)C1C3CC4=C(C(=O)C(OC)=C(C)C4=O)C(CNC(=O)C(C)=O)N3C(C#N)C(C2)N1C (stereo unspecified),–,active: 0.0411 µM
Cc1ccc(Nc2nc(CSc3nnnn3-c3ccccc3)cc(=O)[nH]2)cc1,–,active: 23.1 µM
C=CCn1c(NCc2ccc(OC)cc2)nc2ccccc21,inactive: -19.3%,–
O=C(COC(=O)Cn1cnc2ccccc2c1=O)Nc1ccccc1OC(F)F,–,"inconclusive [inhibitor, single point]"
C=CC[C@@H](CC(=O)N[C@@H](CO)Cc1ccccc1)C(=O)N[C@@H](COC(=O)[C@@H](CC=C)CC(=O)OC(C)(C)C)Cc1c[nH]c2ccccc12,–,active: 20.6 µM
O=[N+]([O-])c1cnc(Nc2ccc(Cl)cn2)c([N+](=O)[O-])c1,–,"inconclusive [inhibitor, single point]"
Cc1c2cnn(CC(=O)N3CCN(c4ccc(F)cc4)CC3)c(=O)c2c(C)n1Cc1ccccc1F,–,active: 20.6 µM
Cc1sc2ncnc(N3CCC(C(=O)Nc4cc(C(F)(F)F)ccc4OCC(F)(F)F)CC3)c2c1C,–,"inconclusive [inhibitor, single point]"
COc1ccc2nc3n(c(=O)c2c1)-c1ccc(Cl)cc1C(=O)NC3Cc1ccc(O)cc1 (stereo unspecified),inactive: -0.924%,–
Cc1ccc(-c2nn(-c3cc(Cl)ccc3[N+](=O)[O-])c(=O)c3ccccc23)cc1C,–,"inconclusive [inhibitor, single point]"
CCCCCNCc1cccn1C,inactive: -15.3%,–
O=C(Nc1nnc(S(=O)(=O)N2CCc3ccccc32)s1)c1ccccc1Cl,–,"inconclusive [inhibitor, single point]"
CCOC(=O)c1c(C)[nH]c(CCC(=O)NCCCN2CCN(c3ccccc3F)CC2)c1C,–,"inconclusive [inhibitor, single point]"
